Results as given in PubChem BioAssay AID1963576 (National Center for Advancing Translational Sciences (NCATS), 2024).
The campaign covered roughly 46,000 compounds. About 60 (0.1%) were called active. Another 3% or so got no clear call; they are omitted. Calls follow the shape of the dose curve; as a rule, active = well fitted inhibition curve with a large enough effect; inconclusive = small, poorly fitted or top-dose-only effect; inactive = no such curve, though single readings can be large or run the other way. The list shows a part of the results.

assay: Primary qHTS assay for Inhibitors of ovarian cancer metastasis using an organotypic tumor microenvironment (TME) model.; also: nearly all actives have a fitted effect of over 65% in size;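 as to activity change, negative = inhibition: plate controls were DMSO wells for no effect and tomatine positive control wells for full effect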; conditions: SKOV3ip1-GFP adhesion/invasion on 3D omental model, fluorescence; series mostly up to 45.8 µM; activity change, negative = inhibition: at the top concentration
Outline: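 A 3D layer of primary human omental fibroblasts, mesothelial cells, fibronectin and collagen I, grown 48 hr, received SKOV3ip1-GFP cells in serum-free medium plus compounds at 0.36-46 umol/L. After 2 hr RT and 16 hr 37 C, fixed adherent GFP cells were counted; normalized to DMSO and tomatine.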

Activity change, negative = inhibition, inactive:
CCOCCCNC(=O)C(c1ccc(C)cc1)N(Cc1cccs1)C(=O)c1ccc(NC(C)=O)cc1 (stereo unspecified) -4.38%
Cc1ccc2c(c1)N(CC(=O)NCc1ccccc1Br)C(=O)c1cccnc1O2 0.0734%
CCCc1nc2ccccc2n2c(-c3ccc(C)cc3)c3c(=O)n(C)c(=O)n(C)c3c12 6.79%
COC(=O)c1ccc(NC(=O)c2cc(=O)c3ccc(C)cc3o2)cc1 -1.73%
Cc1ccc(N2CC(NC(=O)c3ccc(S(=O)(=O)N4CCCCC4)cc3)CC2=O)cc1 (stereo unspecified) -3.22%
O=c1oc2ccc(Br)cc2cc1-c1csc(-c2ccccc2)n1 -6.01%
Cc1ccc(NC(=O)Cn2c(=O)n(CCc3ccccc3)c(=O)c3c4c(sc32)CCCC4)c(C)c1 7.69%
COc1ccc(N2CC(NC(=O)c3cc4ccccc4o3)CC2=O)cc1OC (stereo unspecified) -14.5%
CCc1cccc(NS(=O)(=O)c2c(C)nc3sc(CC)nn3c2=O)c1 9.99%
COc1cc(/C=C(\C#N)C(=O)Nc2ccc(C)cc2)ccc1OCc1cc(=O)n2nc(C)sc2n1 19.1%
C=C1C[C@@]2(O)O[C@@]3(C[C@H]2C(C)C)[C@H](C)CC[C@H]13 2.38%
CN(C(=O)C1=CC(c2ccc3c(c2)OCO3)=NS(=O)(=O)N1C)c1ccccc1 -5.15%
Cc1nc2c(c(C)nn2-c2ccccc2)c(C)c1CCC(=O)NCCc1ccccc1 0.175%
O=C(CSc1nc2c(c(=O)[nH]1)CN(Cc1ccc3c(c1)OCO3)CC2)Nc1cccc(Cl)c1 -3.62%
CCCC(=O)Nc1nnc2n1CCS2 36%
Cc1cccc(Cn2cc3c(=O)n(CC(=O)Nc4ccc(C)c(F)c4)nc-3c3cc(F)ccc32)c1 6.88%
COc1ccc(CC(=O)NCc2nc3cccnc3n2Cc2ccc(C)cc2)cc1OC 20%
CCOc1ccc(Oc2nc(NC)nc(N3CCOCC3)n2)nn1 -16.8%
CC(C)c1cccc(C(C)C)c1NC1=NS(=O)(=O)c2ccccc21 -1.64%
COc1ccccc1NC(=O)NCCN1CCN(c2cccc(Cl)c2)CC1 6.15%
CCc1ccccc1NC(=O)c1cc(S(=O)(=O)N2CCCC2)cn1C 19.3%
COc1ccc(OC)c(NC(=O)c2c(NCc3cccs3)sc3c2CCCC3)c1 13.6%
Cc1ccc(NC(=O)C2CCN(c3nc4ccccc4[nH]3)CC2)c(C)c1 7.18%
O=C(c1ccc(CSc2nc3ccncc3n2Cc2cccc(F)c2)cc1)N1CCCCCC1 -3.11%
CCOc1ccccc1NC(=O)c1cc2c(=O)oc3ccccc3c2s1 -7.63%
O=C(Cn1c(-c2cccs2)cc2ccccc21)NCCc1ccc(Cl)cc1 -3.49%
Cc1cccc(C)c1-n1ncc(C(=O)N2CCN(c3ccccc3)CC2)c1C1CCN(C(=O)OC(C)(C)C)CC1 -4.37%
COC(=O)C(C)Sc1ncnc2c1c(-c1ccccc1)cn2-c1ccc(F)cc1 (stereo unspecified) -12.4%
CCOc1ccc(S(=O)(=O)Nc2ccc3c(c2)N(C(C)=O)CCC3)cc1 12.7%
COc1ccc(OC)c(NC(=O)CN2C(=O)COc3ccc(S(=O)(=O)NC4CCCC4)cc32)c1 -1.43%
Cc1ccc(CNS(=O)(=O)c2cc3c(cc2C)NC(=O)CO3)cc1 4.47%
Cc1ccc(OCc2nc3ccccc3n2CCOc2ccc(Cl)cc2)cc1 -12.1%
O=C(c1ccco1)c1cn(CCOc2ccc(F)cc2)c2ccccc12 12.8%
CS(=O)(=O)CCC(C(=O)Nc1cccc(C(F)(F)F)c1)N1Cc2ccccc2C1=O (stereo unspecified) -20.7%
CCC(Cn1nnc2ccccc2c1=O)NC(=O)Nc1ccc(C)c(C)c1 (stereo unspecified) -0.128%
CC(C)COc1ccc(C(=O)N(Cc2ccc(N(C)C)cc2)Cc2ccco2)cc1 -9.52%
Cc1ccc(-c2nnc(Nc3cccc(O)c3)c3ccccc23)cc1S(=O)(=O)N1CCN(C)CC1 1.05%
Cc1ccc(C(=O)Nc2cccc(-c3nc4ccccc4o3)c2)c(Cl)c1 -1.88%
CC(C)c1ccc(NC(=O)Cn2c(=O)n(CCc3ccccc3)c(=O)c3ccccc32)cc1 -7.08%
Cc1ccc(-c2nc(SCC(=O)NCc3ccco3)c3c(=O)n(C)c(=O)n(C)c3n2)cc1 18.1%
COc1cc(Cl)c(C)cc1Nc1ncnc2c1nc1n2CCCC1 14.3%
CCOC(=O)Cn1c(=O)c2c(nc3n2CCN3c2ccc(CC)cc2)n(C)c1=O -7.35%
CCc1nc(-c2cc(S(=O)(=O)N3CCN(c4ccccc4OC)CC3)ccc2OC)no1 -0.451%
Cc1ccc(NC(=O)CC(C)S(=O)(=O)c2ccc3c(c2)NC(=O)CO3)cc1Cl (stereo unspecified) 2.02%
CCc1ccc(NC(=O)C(CC)n2c(=O)c(C(F)(F)F)nc3ccccc32)cc1 (stereo unspecified) 138%
COc1cccc(NS(=O)(=O)c2ccc(-c3cc(C)no3)s2)c1 -20.5%
COc1ccc(-c2cc(C(=O)Nc3c(C)nn(Cc4ccc(C)cc4)c3C)no2)cc1OC 1.41%
COc1ccc(Cl)cc1NC(=O)CN1C(=O)COc2ccc(S(=O)(=O)NC3CCCC3)cc21 19.4%
CCCOc1cccc(C(=O)N(Cc2ccc(C)o2)C2CCS(=O)(=O)C2)c1 (stereo unspecified) -5.22%
CC(=O)N1CCCc2cc(S(=O)(=O)N3CCC(C(=O)NCc4cccc(C)c4)CC3)ccc21 15.3%
CN(C(=O)CSc1cn(CC(=O)N2CCOCC2)c2ccccc12)c1ccccc1 -5.65%
COC(=O)c1ccccc1NC(=O)c1c(NC(=O)c2ccco2)sc2c1CCC(C(C)(C)C)C2 (stereo unspecified) 0.366%
COc1cc(NC(=O)CC2C(=O)N(c3cccc(C)c3)C(=O)N2Cc2ccc(F)cc2)cc(OC)c1 (stereo unspecified) 7.49%
COCCNc1sc(S(=O)(=O)c2ccc(C)cc2)nc1S(=O)(=O)c1ccc(C)cc1 26.7%
N#Cc1ccc(C(c2ccc(C#N)cc2)n2cncn2)cc1 27.7%
CC(C)(C)C(=O)NCCc1nc2ccccc2n1CCCCOc1ccc(Cl)cc1 -6.29%
Cc1oc2ncn(CC(C)C)c(=O)c2c1C(=O)Nc1cc(F)ccc1F 2.28%
CC(=O)c1ccc(NC(=O)Cn2c(=O)c3cccn3c3ccccc32)cc1 0.8%
Cc1cc(C)cc(S(=O)(=O)Nc2cccc(-c3ccc(N4CCOCC4)nn3)c2)c1 25.4%
COc1ccc(Cn2c(C(=O)O)c(CNCCc3cccs3)c3ccc(C)cc32)cc1 7.11%
COc1ccc(-n2nc3c(N4CCCC(C(=O)NCc5cccc(F)c5)C4)nnc(C)c3c2C)cc1 (stereo unspecified) -24%
COc1c2occc2cc2ccc(=O)oc12 -1.13%
O=C(Oc1ccc(F)cc1)c1nc(SCc2ccccc2F)ncc1Cl -9.63%
Cc1oc2ncn(C)c(=O)c2c1C(=O)N1CCN(c2ccccc2)CC1 -8.3%
COc1cccc(CNC(=O)c2cc3c(s2)-c2c(C)cccc2OC3)c1 -11.6%
Cc1ccc(C)c(OCCn2cc(C(=O)c3ccco3)c3ccccc32)c1 6.06%
CC1CCCN(CCCNC(=O)c2cn(C)c3ccc(S(=O)(=O)N(C)C4CCCCC4)cc3c2=O)C1 (stereo unspecified) 6.07%
Cc1ccc2nc(N3CCN(C(=O)C4CC4)CC3)sc2c1 -0.0512%
COc1ccc2c(OCc3nnc4ccc(-c5ccccc5)nn34)ccnc2c1 -10.8%
Cc1ccc2c(c1)-c1nc(-c3ccc4c(c3)NC(=O)CO4)cc(-c3ccc(Cl)cc3)c1CO2 9.04%
Cn1c(=O)c2c([nH]c(=O)n2Cc2ccc(Cl)cc2Cl)n(C)c1=O 3.56%

outcome, inactive:
CC(C)c1ccc(NC(=O)c2cccc3c2C(=O)N(C2CCCCC2)C3)cc1
CCOC(=O)c1cc(NC(=O)c2ccc(C)cc2)c(=O)n2c1oc1ccc(Cl)cc12
Cn1nnc2c(NCc3ccccc3Cl)ncnc21
CCOC(=O)c1noc2ncnc(N3CCC(C)CC3)c12
Cc1cccc(N2CCN(C(=O)CCc3c(C)nc4ncnn4c3C)CC2)c1C
Cc1ccc(Cn2c(=O)n(CCCC(=O)NCc3ccccc3Cl)c(=O)c3ccccc32)cc1
COC(=O)c1cnc(N2CCN(c3ccccc3F)CC2)c2ccccc12
CN(CC(=O)Nc1cccc(C(F)(F)F)c1)S(=O)(=O)c1cccs1
COCCCNC(=O)CSc1nc2cc(OC)c(OC)cc2c2nc(-c3ccccc3)nn12
CCc1ccc(NC(=O)CCS(=O)(=O)c2ccc3c(c2)n(C)c(=O)c(=O)n3C)cc1
Cc1ccc(Nc2nnc(-c3ccc(C)c(S(=O)(=O)NCc4nc5ccccc5[nH]4)c3)c3ccccc23)cc1
Cc1ccc(Nc2nn3c(=O)c4cc5c(cc4nc3s2)OCO5)cc1Cl
CCOC(=O)c1cc(-c2ccccc2)n(-c2cccc(C(=O)Nc3ccc(OCC)cc3)c2)c1C
Cc1ccc(-c2nnc(Nc3ccc(O)cc3)c3ccccc23)cc1S(=O)(=O)N1CCOCC1
COc1cccc(Cn2c(=O)n(Cc3ccco3)c(=O)c3oc4ccccc4c32)c1
CCCCN(CC)CCNC(=O)Cn1cc2c(n1)-c1c(oc(C(=O)N3CCCC3)c1C)CC2
CCCN(C(=O)c1noc2c1COc1ccc(C)cc1-2)c1ccc(Cl)c(Cl)c1
CCOC(=O)c1cc2c(=O)n3ccccc3nc2n(CC(C)C)c1=NC(=O)c1c(-c2c(F)cccc2Cl)noc1C
CC(=O)Nc1ccc(NC(=O)CSc2nccn2C)cc1
Cc1ccc(NC(=O)Cn2c(=O)n(CCC(=O)N3CCc4ccccc4C3)c(=O)c3ccccc32)cc1
Cc1ccc(Cn2c(C(=O)O)c(CNC3CCCCCC3)c3ccc(C)cc32)cc1
COc1ccccc1CNC(=O)c1ccc2c(c1)N(Cc1cccc(Cl)c1)C(=O)c1ccccc1S2(=O)=O
COc1ccccc1C(=O)NC1(C(F)(F)F)C(=O)Nc2c1c(=O)[nH]c(=O)n2-c1ccccc1 (stereo unspecified)
COc1ccc(-c2nc(CNS(=O)(=O)c3ccccc3)cs2)cc1
CCn1c(CNC(=O)C23CC4CC(CC(C4)C2)C3)nnc1SCC(=O)Nc1ccccc1
